# This is one part of the list.
# B1: CLECb-Precomplexed (Mus musculus), P43025 (protein)
# chain: MAKNGLVLCILVVSLLLDQTDGYPSRMKARKHSKRRVKAKDDDLKSQVEKLWREVNALKEMQALQTVCLRGTKVHKKCYLASEGLKHYHEANEDCISKGGTLVVPRNSDEINALRDYGKRSLPGVNDFWLGINDMVTEGKFLDVHGFAVSFLNWDRAQPSGGKRENCVLFSQSAQGKWSDEACRSSKRYICEFIIPTRTRPLEQKLISEEDLAANDILDYKDDDDKV
# Legend:
# Assay in all cases: glycan array binding signal (z-score within array); higher = stronger binding
# Settings in all cases: glycan notation: IUPAC condensed, linker removed
# [1] = biological target: Gal(b1-4)GlcNAc(b1-3)Gal(b1-4)GlcNAc(b1-2)[Gal(b1-4)GlcNAc(b1-3)Gal(b1-4)GlcNAc(b1-6)]Man(a1-6)[Gal(b1-4)GlcNAc(b1-3)Gal(b1-4)GlcNAc(b1-2)Man(a1-3)]Man(b1-4)GlcNAc(b1-4)GlcNAc
# Summary of the method: (§1)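 Glycan array data came from 3228 arrays in the Consortium for Functional Glycomics database, and only arrays with an available protein sequence were kept. Glycan names were put into IUPAC-condensed notation, and columns mapping to the same glycan were averaged. The binding signal is a within-array Z-score, averaged across arrays of one protein sequence run at different concentrations or buffers and across linkers. A negative Z-score can be read as non-binding.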
# [2] = biological target: Gal(b1-4)GlcNAc(b1-3)Gal(b1-4)GlcNAc(b1-2)[Gal(b1-4)GlcNAc(b1-3)Gal(b1-4)GlcNAc(b1-6)]Man(a1-6)[Gal(b1-4)GlcNAc(b1-3)Gal(b1-4)GlcNAc(b1-2)Man(a1-3)]Man(b1-4)GlcNAc(b1-4)[Fuc(a1-6)]GlcNAc
# Summary of the method: as §1
# [3] = biological target: Gal(b1-4)GlcNAc(b1-3)Gal(b1-4)GlcNAc(b1-3)Gal(b1-4)GlcNAc
# Summary of the method: as §1
# [4] = biological target: Gal(b1-4)GlcNAc(b1-3)Gal(b1-4)GlcNAc(b1-3)Gal(b1-4)GlcNAc(b1-2)Man(a1-3)[Gal(b1-4)GlcNAc(b1-3)Gal(b1-4)GlcNAc(b1-3)Gal(b1-4)GlcNAc(b1-2)Man(a1-6)]Man(b1-4)GlcNAc(b1-4)GlcNAc
# Summary of the method: as §1
# [5] = biological target: Gal(b1-4)GlcNAc(b1-3)Gal(b1-4)GlcNAc(b1-3)Gal(b1-4)GlcNAc(b1-2)Man(a1-3)[Gal(b1-4)GlcNAc(b1-3)Gal(b1-4)GlcNAc(b1-3)Gal(b1-4)GlcNAc(b1-2)Man(a1-6)]Man(b1-4)GlcNAc(b1-4)[Fuc(a1-6)]GlcNAc
# Summary of the method: as §1
# [6] = biological target: Gal(b1-4)GlcNAc(b1-3)Gal(b1-4)GlcNAc(b1-3)Gal(b1-4)GlcNAc(b1-2)[Gal(b1-4)GlcNAc(b1-3)Gal(b1-4)GlcNAc(b1-3)Gal(b1-4)GlcNAc(b1-6)]Man(a1-6)[Gal(b1-4)GlcNAc(b1-3)Gal(b1-4)GlcNAc(b1-3)Gal(b1-4)GlcNAc(b1-2)Man(a1-3)]Man(b1-4)GlcNAc(b1-4)[Fuc(a1-6)]GlcNAc
# Summary of the method: as §1
# [7] = biological target: Gal(b1-4)GlcNAc(b1-3)Gal(b1-4)GlcNAc(b1-3)Gal(b1-4)GlcNAc(b1-3)Gal(b1-4)GlcNAc(b1-2)Man(a1-3)[Gal(b1-4)GlcNAc(b1-3)Gal(b1-4)GlcNAc(b1-3)Gal(b1-4)GlcNAc(b1-3)Gal(b1-4)GlcNAc(b1-2)Man(a1-6)]Man(b1-4)GlcNAc(b1-4)GlcNAc
# Summary of the method: as §1
# [8] = biological target: Gal(b1-4)GlcNAc(b1-3)Gal(b1-4)GlcNAc(b1-3)Gal(b1-4)GlcNAc(b1-3)Gal(b1-4)GlcNAc(b1-2)Man(a1-3)[Gal(b1-4)GlcNAc(b1-3)Gal(b1-4)GlcNAc(b1-3)Gal(b1-4)GlcNAc(b1-3)Gal(b1-4)GlcNAc(b1-2)Man(a1-6)]Man(b1-4)GlcNAc(b1-4)[Fuc(a1-6)]GlcNAc
# Summary of the method: as §1
# [9] = biological target: Gal(b1-4)GlcNAc(b1-3)Gal(b1-4)GlcNAc(b1-3)Gal(b1-4)GlcNAc(b1-3)Gal(b1-4)GlcNAc(b1-2)[Gal(b1-4)GlcNAc(b1-3)Gal(b1-4)GlcNAc(b1-3)Gal(b1-4)GlcNAc(b1-3)Gal(b1-4)GlcNAc(b1-6)]Man(a1-6)[Gal(b1-4)GlcNAc(b1-3)Gal(b1-4)GlcNAc(b1-3)Gal(b1-4)GlcNAc(b1-3)Gal(b1-4)GlcNAc(b1-2)Man(a1-3)]Man(b1-4)GlcNAc(b1-4)[Fuc(a1-6)]GlcNAc
# Summary of the method: as §1
# [10] = biological target: Gal(b1-4)GlcNAc(b1-3)Gal(b1-4)GlcNAc(b1-3)Gal(b1-4)GlcNAc(b1-3)Gal(b1-4)GlcNAc(b1-3)Gal(b1-4)GlcNAc(b1-2)Man(a1-3)[Gal(b1-4)GlcNAc(b1-3)Gal(b1-4)GlcNAc(b1-3)Gal(b1-4)GlcNAc(b1-3)Gal(b1-4)GlcNAc(b1-3)Gal(b1-4)GlcNAc(b1-2)Man(a1-6)]Man(b1-4)GlcNAc(b1-4)GlcNAc
# Summary of the method: as §1
# [11] = biological target: Gal(b1-4)GlcNAc(b1-3)Gal(b1-4)GlcNAc(b1-3)Gal(b1-4)GlcNAc(b1-3)Gal(b1-4)GlcNAc(b1-3)Gal(b1-4)GlcNAc(b1-2)Man(a1-3)[Gal(b1-4)GlcNAc(b1-3)Gal(b1-4)GlcNAc(b1-3)Gal(b1-4)GlcNAc(b1-3)Gal(b1-4)GlcNAc(b1-3)Gal(b1-4)GlcNAc(b1-2)Man(a1-6)]Man(b1-4)GlcNAc(b1-4)[Fuc(a1-6)]GlcNAc
# Summary of the method: as §1
# [12] = biological target: Gal(b1-4)GlcNAc(b1-3)Gal(b1-4)GlcNAc(b1-3)Gal(b1-4)GlcNAc(b1-3)Gal(b1-4)GlcNAc(b1-3)Gal(b1-4)GlcNAc(b1-2)[Gal(b1-4)GlcNAc(b1-3)Gal(b1-4)GlcNAc(b1-3)Gal(b1-4)GlcNAc(b1-3)Gal(b1-4)GlcNAc(b1-3)Gal(b1-4)GlcNAc(b1-6)]Man(a1-6)[Gal(b1-4)GlcNAc(b1-3)Gal(b1-4)GlcNAc(b1-3)Gal(b1-4)GlcNAc(b1-3)Gal(b1-4)GlcNAc(b1-3)Gal(b1-4)GlcNAc(b1-2)Man(a1-3)]Man(b1-4)GlcNAc(b1-4)[Fuc(a1-6)]GlcNAc
# Summary of the method: as §1
# [13] = biological target: Gal(b1-4)GlcNAc(b1-3)Gal(b1-4)GlcNAc(b1-3)Gal(b1-4)GlcNAc(b1-3)Gal(b1-4)GlcNAc(b1-3)Gal(b1-4)GlcNAc(b1-3)Gal(b1-4)GlcNAc(b1-2)Man(a1-3)[Gal(b1-4)GlcNAc(b1-3)Gal(b1-4)GlcNAc(b1-3)Gal(b1-4)GlcNAc(b1-3)Gal(b1-4)GlcNAc(b1-3)Gal(b1-4)GlcNAc(b1-3)Gal(b1-4)GlcNAc(b1-2)Man(a1-6)]Man(b1-4)GlcNAc(b1-4)GlcNAc
# Summary of the method: as §1
# [14] = biological target: Gal(b1-4)GlcNAc(b1-3)Gal(b1-4)GlcNAc(b1-3)GalNAc
# Summary of the method: as §1
# [15] = biological target: Gal(b1-4)GlcNAc(b1-3)Gal(b1-4)GlcNAc(b1-3)[Gal(b1-4)GlcNAc(b1-3)Gal(b1-4)GlcNAc(b1-6)]GalNAc
# Summary of the method: as §1
# [16] = biological target: Gal(b1-4)GlcNAc(b1-3)Gal(b1-4)GlcNAc(b1-6)[Gal(b1-3)]GalNAc
# Summary of the method: as §1
# [17] = biological target: Gal(b1-4)GlcNAc(b1-3)Gal(b1-4)[Fuc(a1-3)]GlcNAc(b1-3)Gal(b1-4)[Fuc(a1-3)]GlcNAc
# Summary of the method: as §1
# [18] = biological target: Gal(b1-4)GlcNAc(b1-3)GalNAc
# Summary of the method: as §1
# [19] = biological target: Gal(b1-4)GlcNAc(b1-3)[Fuc(a1-3)GlcNAc(b1-6)]Gal(b1-4)Glc
# Summary of the method: as §1
# [20] = biological target: Gal(b1-4)GlcNAc(b1-3)[Gal(b1-4)GlcNAc(b1-6)]Gal(b1-4)GlcNAc
# Summary of the method: as §1
# [21] = biological target: Gal(b1-4)GlcNAc(b1-3)[GlcNAc(b1-6)]Gal(b1-4)GlcNAc
# Summary of the method: as §1
# [22] = biological target: Gal(b1-4)GlcNAc(b1-6)Gal(b1-4)GlcNAc
# Summary of the method: as §1
# [23] = biological target: Gal(b1-4)GlcNAc(b1-6)GalNAc
# Summary of the method: as §1
# [24] = biological target: Gal(b1-4)GlcNAc(b1-6)[Gal(b1-3)]GalNAc
# Summary of the method: as §1
# [25] = biological target: Gal(b1-4)GlcNAc(b1-6)[Gal(b1-4)GlcNAc(b1-3)]GalNAc
# Summary of the method: as §1
# [26] = biological target: Gal(b1-4)GlcNAc6P
# Summary of the method: as §1
# [27] = biological target: Gal(b1-6)Gal
# Summary of the method: as §1
# [28] = biological target: Gal3S(b1-3)GalNAc
# Summary of the method: as §1
# [29] = biological target: Gal3S(b1-3)GlcNAc
# Summary of the method: as §1
# [30] = biological target: Gal3S(b1-3)[Fuc(a1-4)]GlcNAc
# Summary of the method: as §1
# [31] = biological target: Gal3S(b1-4)Glc
# Summary of the method: as §1
# [32] = biological target: Gal3S(b1-4)Glc6S
# Summary of the method: as §1
# [33] = biological target: Gal3S(b1-4)GlcNAc
# Summary of the method: as §1
# [34] = biological target: Gal3S(b1-4)[Fuc(a1-3)]Glc6S
# Summary of the method: as §1
# [35] = biological target: Gal3S(b1-4)[Fuc(a1-3)]GlcNAc
# Summary of the method: as §1
# [36] = biological target: Gal3S(b1-4)[Fuc(a1-3)]GlcNAc6S
# Summary of the method: as §1
# [37] = biological target: Gal3S4S(b1-4)GlcNAc
# Summary of the method: as §1
# [38] = biological target: Gal3S6S(b1-4)GlcNAc
# Summary of the method: as §1
# [39] = biological target: Gal3S6S(b1-4)GlcNAc6S
# Summary of the method: as §1
# [40] = biological target: Gal4S(b1-4)GlcNAc
# Summary of the method: as §1
# [41] = biological target: Gal4S6S(b1-4)GlcNAc
# Summary of the method: as §1
# [42] = biological target: Gal6P(b1-4)GlcNAc
# Summary of the method: as §1
# [43] = biological target: Gal6S(b1-3)GlcNAc
# Summary of the method: as §1
# [44] = biological target: Gal6S(b1-3)GlcNAc6S
# Summary of the method: as §1
# [45] = biological target: Gal6S(b1-4)Glc
# Summary of the method: as §1
binder,measurement,setting,value
B1,glycan array binding signal (z-score),[1],1.91
same,glycan array binding signal (z-score),[2],0.499
same,glycan array binding signal (z-score),[3],-0.579
same,glycan array binding signal (z-score),[4],0.939
same,glycan array binding signal (z-score),[5],-0.221
same,glycan array binding signal (z-score),[6],3.07
same,glycan array binding signal (z-score),[7],-0.374
same,glycan array binding signal (z-score),[8],1.82
same,glycan array binding signal (z-score),[9],1.42
same,glycan array binding signal (z-score),[10],2.1
same,glycan array binding signal (z-score),[11],1.04
same,glycan array binding signal (z-score),[12],11.2
same,glycan array binding signal (z-score),[13],0.92
same,glycan array binding signal (z-score),[14],-0.369
same,glycan array binding signal (z-score),[15],-0.18
same,glycan array binding signal (z-score),[16],0.229
same,glycan array binding signal (z-score),[17],0.033
same,glycan array binding signal (z-score),[18],0.155
same,glycan array binding signal (z-score),[19],-0.148
same,glycan array binding signal (z-score),[20],0.403
same,glycan array binding signal (z-score),[21],0.459
same,glycan array binding signal (z-score),[22],-0.347
same,glycan array binding signal (z-score),[23],-0.104
same,glycan array binding signal (z-score),[24],-0.191
same,glycan array binding signal (z-score),[25],0.15
same,glycan array binding signal (z-score),[26],-0.177
same,glycan array binding signal (z-score),[27],-0.508
same,glycan array binding signal (z-score),[28],-0.161
same,glycan array binding signal (z-score),[29],-0.268
same,glycan array binding signal (z-score),[30],-0.305
same,glycan array binding signal (z-score),[31],0.146
same,glycan array binding signal (z-score),[32],-0.045
same,glycan array binding signal (z-score),[33],-0.36
same,glycan array binding signal (z-score),[34],3.47
same,glycan array binding signal (z-score),[35],-0.397
same,glycan array binding signal (z-score),[36],0.004
same,glycan array binding signal (z-score),[37],-0.208
same,glycan array binding signal (z-score),[38],-0.251
same,glycan array binding signal (z-score),[39],-0.426
same,glycan array binding signal (z-score),[40],-0.4
same,glycan array binding signal (z-score),[41],-0.052
same,glycan array binding signal (z-score),[42],-0.205
same,glycan array binding signal (z-score),[43],-0.105
same,glycan array binding signal (z-score),[44],0.87
same,glycan array binding signal (z-score),[45],0.134

# From the supplement of paper PMC8728848
